# From PubChem BioAssay AID686970 (National Center for Advancing Translational Sciences (NCATS), 2013)
# Among all 360,000 compounds or so, about 6,000 (1.7%) were called active. Inconclusive means that the source gave no clear call. Such entries were picked first, then a sample of the others. The call rests on the fitted dose curve; in most records, active means well fitted cell-killing curve with a large enough effect; inconclusive means small, poorly fitted or top-dose-only effect, or effect the other way; inactive means flat fitted curve, though single readings scatter. Potencies of inconclusive entries are left out as doubtful fits.
# Experiment: qHTS for induction of synthetic lethality in tumor cells producing 2HG: qHTS for the HT-1080-NT fibrosarcoma cell line;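 further: NT is the 2HG producing partner of a matched IDH1 knockdown line; nearly all actives have a fitted effect of over 55% in size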;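 on activity, negative = less viability: 0% = DMSO-treated cells and -100% = media-only wells without cells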
# Conditions: HT-1080-NT fibrosarcoma viability, CellTiter-Glo ATP luminescence, 48 h; activity, negative = less viability: at 46.1 µM (top of the series) unless noted
# Procedure, shortened: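 750 cells/well, RPMI + 5% FBS; 2 h settle, compound pin-transfer, 48 h at 37 degrees C. CellTiter-Glo 10 min RT, luminescence. Normalized to DMSO and media-only wells.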
# Potency means the concentration at half of the fitted maximal effect; tags describe the fitted curve by direction and shape.
Compound,Potency,"activity, negative = less viability"
COc1ccc(CCNC(=O)CSc2nc(N)c(C#N)c(-c3cccs3)c2C#N)cc1OC,"inconclusive [cytotoxic, single point]",
Cn1ccnc1SCC(=O)Nc1ccc(Cl)cn1,inactive,
CCN(CC(=O)Nc1ccc2c(c1)OCCO2)Cc1cc(=O)oc2c(C)c(C)ccc12,inactive,
Cc1ccccc1NC(=O)c1csc2c1CCCC2,"inconclusive [cytotoxic, single point]",
Cc1cc2ccccn2c1C(=O)c1ccc(S(=O)(=O)N(C)C)cc1,inactive,
O=C(NC(c1ccc(Cl)cc1)c1ccsc1)C1CCN(CCOc2ccc(Cl)cc2)CC1 (stereo not drawn),,inconclusive: -79.8%
N#CC1=C2SCC(O)(c3ccccc3)N2C(=O)CC1c1ccccc1 (stereo not drawn),active: 1.3 µM,
N#C/C(=C\c1ccc(F)c(Br)c1)C(=O)NC1CC1,inactive,
CCn1c(=O)n(CC)c2cc(S(=O)(=O)N3CCC(c4ccccc4)CC3)ccc21,"inconclusive [cytotoxic, single point]",
C=C(C)Cn1c(SCC#N)nc2ccccc2c1=O,inactive,
N#Cc1ccc(-c2cccc3nccn23)cc1,,inconclusive: 9.14%
COc1ccc2[nH]c3c(c2c1)CC(C)NC3=O (stereo not drawn),inactive,
N#Cc1ccc(N=c2ssnc2Cl)cc1,"inconclusive [cytotoxic, single point]",
CCOc1ccc(-c2nc(N)ncc2Oc2ccccc2Br)c(O)c1,"inconclusive [cytotoxic, single point]",
Cc1cc(Cl)ccc1Oc1nccc(N(C)C)c1C#N,"inconclusive [cytotoxic, single point]",
CCOC(=O)CSC1=C(C#N)C(c2sccc2C)CC(=O)N1 (stereo not drawn),active: 2.51 µM,
CC(C)OC(=O)C(=O)NNc1ccccc1,active: 7.31 µM,
CCOC(=O)c1[nH]c2ccccc2c1NC(=O)c1ccc(Br)o1,"inconclusive [cytotoxic, single point]",
O=c1c(C(c2ccc(Br)cc2)c2c(O)nc3n(c2=O)CCS3)c(O)nc2n1CCS2,inactive,
CCN(CC)CCNC(=O)c1cc2cc(Br)ccc2s1,"inconclusive [cytotoxic, single point]",
CCOC(=O)c1cc(C(=O)OCC)c2ccccn2c1=O,inactive,
O=C(N/N=C/C(Br)=C/c1ccccc1)c1cc(-c2ccco2)[nH]n1,"inconclusive [cytotoxic, partial curve]",
COCCCNc1ncnc2c1cnn2-c1ccc(C)cc1C,"inconclusive [cytotoxic, single point]",
CC(C(=O)Nc1ccccc1Sc1ccccc1)N(c1ccccc1)S(C)(=O)=O (stereo not drawn),inactive,
CC1(C(=O)Nc2ccc3c(c2)OCCO3)CCN1C(=O)Cc1ccc(-c2ccccc2)cc1 (stereo not drawn),"inconclusive [cytotoxic, single point]",

Compound,Potency,"activity, negative = less viability"
N#C/C(=C\Nc1ccc2c(c1)OCCO2)c1nc(-c2ccccc2)cs1,inactive,
COc1cc(OC)cc(-c2sc3ccc(OC)cc3c2C#CCO)c1,"inconclusive [cytotoxic, single point]",
Brc1ccc2[nH]c3c(N4CCc5ccccc5C4)ncnc3c2c1,active: 18.4 µM,
COc1ccc(OCc2cc(C(=O)N3CCCC3)no2)c2ccccc12,"inconclusive [cytotoxic, single point]",
OCCN1CCN(CC#CCn2c3ccccc3c3ccccc32)CC1,active: 20.6 µM,
COc1cccc(N2CCN(C(=O)CN3C(=O)NC(C)(c4ccc5ccccc5c4)C3=O)CC2)c1 (stereo not drawn),inactive,
O=c1cc(-c2ccccc2)nc2nc(COc3ccccc3)[nH]n12,,inconclusive: 6.63%
CC(=O)CCS(=O)(=O)c1ccc(Oc2ccc(S(=O)(=O)CCC(C)=O)cc2)cc1,"inconclusive [cytotoxic, single point]",
O=C(c1cccc(C(=O)N2CCN(c3ccc(F)cc3)CC2)c1)N1CCN(c2ccc(F)cc2)CC1,"inconclusive [cytotoxic, single point]",
O=C(/C=C/c1cccc(Cl)c1)c1nc2ccccc2[nH]1,"inconclusive [cytotoxic, single point]",
CC1CCN(CC(O)COc2ccc(-c3ccccc3)cc2)CC1 (stereo not drawn),"inconclusive [cytotoxic, single point]",
Cc1ccc(S(=O)(=O)N2C[C@@H]3[C@H]4CC[C@H](C4)[C@@H]3[C@@H](C)[C@H]2c2ccn(Cc3ccccc3)c2)cc1,"inconclusive [cytotoxic, single point]",
CCOC(=O)c1[nH]c2ccc(OC)cc2c1NC(=O)/C=C/c1ccc2c(c1)OCO2,"inconclusive [cytotoxic, partial curve]",
Cc1ccc(NC(=O)CSCc2nc3c(nnn3Cc3ccc(F)cc3)c(=O)[nH]2)c(C)c1,"inconclusive [cytotoxic, single point]",
CC1CC(C)CN(C(C(=O)NC2CCCCC2)c2cc3ccccc3o2)C1 (stereo not drawn),"inconclusive [cytotoxic, single point]",
CC(=O)C(C(c1ccccc1)c1c[nH]c2ccccc12)[N+](=O)[O-] (stereo not drawn),"inconclusive [cytotoxic, single point]",
O=C(NCC1CCCO1)c1ccc(-c2ccccc2Cl)o1 (stereo not drawn),inactive,
COc1cc(OC)cc(C(=O)NC(C(=O)NNC(=O)CN(C)S(=O)(=O)c2ccc(C)cc2)C(C)C)c1 (stereo not drawn),inactive,
CC1CCCN(C(=O)C(C)Sc2nc(-c3ccccc3)cc(C(F)(F)F)n2)C1 (stereo not drawn),"inconclusive [cytotoxic, single point]",
CS(=O)(=O)c1nc(-c2ccc(Br)cc2)n[nH]1,inactive,
NC(=O)c1ncn([C@@H]2O[C@H](CNCc3c(OCc4ccccc4F)ccc4ccccc34)[C@@H](O)[C@H]2O)n1,inactive,
COc1ccc2cc([C@H](C)C(=O)N(C)Cc3ccccc3N3CCCC3)ccc2c1,"inconclusive [cytotoxic, single point]",
COc1ccc(OCc2nn3c(Cn4cnc5ccccc54)nnc3s2)cc1,"inconclusive [cytotoxic, partial curve]",
COc1cccc(CN(Cc2ccco2)C(c2ccc(F)cc2)c2nnnn2C(C)(C)C)c1 (stereo not drawn),inactive,
CC1(C(=O)NS(=O)(=O)C2CC2)CCN(C(=O)COc2ccc(Cl)cc2Cl)C1 (stereo not drawn),"inconclusive [rising, partial curve]",

Compound,Potency,"activity, negative = less viability"
CC(C)(O)c1cc2ccc(C#CCCN3C(=O)c4ccccc4C3=O)cc2c(=O)o1,"inconclusive [cytotoxic, single point]",
Cc1onc(-c2c(Cl)cccc2Cl)c1C(=O)N1CCN(c2ccccc2)CC1,"inconclusive [cytotoxic, partial curve]",
COc1ccccc1C(=O)Nc1nc2ccccc2[nH]1,active: 1.46 µM,
CCOC(=O)c1[nH]c(C)c(CN(CCc2ccccc2)C(=O)CCC(=O)O)c1C,"inconclusive [rising, full curve, poor fit]",
Cc1cc(NC(=O)CSc2nc(-c3ccc(Cl)cc3)cs2)no1,"inconclusive [cytotoxic, single point]",
CC1=C(C(=O)N(C(C)C)C(C)C)CC(CC(=O)NC2CCCC2)C(=O)N1CCC1=CCCCC1 (stereo not drawn),inactive,
CCCC(O)(c1ccc(OC)cc1)C(CN1CCOCC1)c1ccc(Cl)cc1 (stereo not drawn),"inconclusive [cytotoxic, single point]",
N=c1c(C(=O)NC2CCCC2)cc2c(=O)n3ccccc3nc2n1C1CCCC1,inactive,
COC(=O)c1cc(=O)n(Cc2cccs2)c(=Nc2ccc(F)cc2)s1,"inconclusive [cytotoxic, single point]",
CCn1cc(CN2CCCC(C(=O)c3ccc(-c4ccccc4)c(F)c3)C2)cn1 (stereo not drawn),"inconclusive [cytotoxic, partial curve]",
COc1cccc(C(c2nnnn2C(C)(C)C)N2CCN(C/C=C/c3ccccc3)CC2)c1OC (stereo not drawn),"inconclusive [cytotoxic, single point]",
COc1ccc(C(=O)OCC(=O)NC2CC2)cc1S(=O)(=O)N1CCOCC1,inactive,
CCc1ccc(S(=O)(=O)NCCc2csc(-c3ccccc3)n2)s1,"inconclusive [cytotoxic, single point]",
CC(C)c1ccc(NC(=O)C(c2ccc3c(c2)OCO3)N2CCN(C(=O)c3ccco3)CC2)cc1 (stereo not drawn),inactive,
CC(=O)NCCC(=O)Nc1cc(S(=O)(=O)N2CCCCC2)ccc1N1CCCCC1,inactive,
COc1ccc(NC(=O)CN2C(=O)c3cccc4cccc2c34)cc1OC,"inconclusive [cytotoxic, single point]",
CC(C)(C)C1CCN2CCCC(c3ccc([N+](=O)[O-])cc3)(C1)C21OCCO1 (stereo not drawn),inactive,
CN(C)S(=O)(=O)N1CCC(CO)(Cc2cccc(C(F)(F)F)c2)CC1,inactive,
CCC1(C)N=C(c2ccc3c(c2)OCO3)CC(c2ccccc2O)N1 (stereo not drawn),"inconclusive [cytotoxic, single point]",
CCOC(=O)/C(C#N)=C/c1ccc(OCC(=O)Nc2ccc(OC)cc2)c(OC)c1,inactive,
O=C(NCC(=O)N(c1cccnc1)C(C(=O)NC1CCCC1)c1cccs1)c1ccco1 (stereo not drawn),inactive,
CN1CCC=C(C(=O)N2c3ccccc3Sc3ccc(Cl)cc32)C1,"inconclusive [cytotoxic, single point]",
COc1cc(NC(=O)CSc2nnc3ccccn23)cc(OC)c1OC,inactive,
